# In the supplement of paper PMC12217912:
# This is one part of the list. Sequences were assembled here from the parent chain. Values near 0.05 are background.
# B1: TEV protease; numbered along this chain (parent)
# chain: MGESLFKGPRDYNPISSSICHLTNESDGHTTSLYGIGFGPFIITNKHLFRRNNGTLVVQSLHGVFKVKDTTTLQQHLVDGRDMIIIRMPKDFPPFPQKLKFREPQREERICLVTTNFQTKSMSSMVSDTSCTFPSGDGIFWKHWIQTKDGQCGSPLVSTRDGFIVGIHSASNFTNTNNYFTSVPKNFMELLTNQEAQQWVSGWRLNADSVLWGGHKVFMVKPEEPFQPVKEATQL
# Variants of: B1
# Test: raw area under fraction-flipped curve 0-4 h after induction (AUC4h, not background-subtracted), DNA-recorder readout of cleavage of the substrate (dimensionless); higher = more cleavage of the substrate by the protease variant
# Details: temperature: 34 °C; time window: 0-4 h after rhamnose induction
# Description: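 In vivo DNA recorder in E. coli TOP10(DE3) ΔrhaA at 34 °C. Each TEVp single-site mutant (parent TEVp 0) is paired with a single-site variant of the 7-mer TEVs (canonical ENLYFQ|S). The substrate sits between flexible linkers in a Bxb1-sfGFP-TEVs-SsrA fusion, so cleavage stabilises Bxb1 and speeds flipping of a recombination array, read by NGS. The value is the raw area under the fraction-flipped curve over 0-4 h after rhamnose induction (AUC4h), with ≥20 reads per time point. It is not background-subtracted; inactive controls average about 0.047.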
# 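Note: Bxb1 expression induced with 0.2% (w/v) L-rhamnose at OD600 near 0.5, cultures sampled hourly, flipped fraction per protease–substrate barcode pair counted by paired-end Illumina sequencing.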
Variant,area with substrate ECLYFQS,area with substrate EDLYFQS,area with substrate EHLYFQS,area with substrate EILYFQS,area with substrate EKLYFQS,area with substrate ELLYFQS,area with substrate EMLYFQS,area with substrate EPLYFQS,area with substrate EQLYFQS,area with substrate ERLYFQS
MGESLFKGPRDYNPISSSICHLTNESDGHTTSLYGIGFGPFIITNKHLFRRNNGTLVVQSLHGVFKVKDTTTLQQHLVDGRDMIIIRMPKDFPPFPQKLKFREPQREERICLVTTNFQTKSMSSMVSDTSCTFPSGDGIFWKHWIQTKDGQCGSPLVSTRDGFIVGIHSASNFTNTNNYFTSVPKNFMELLTNQEAQQWVSGWRLCADSVLWGGHKVFMVKPEEPFQPVKEATQL [N206C],0.139,0.125,0.134,0.0955,0.104,0.102,0.129,0.105,0.106,0.0997
MGESLFKGPRDYNPISSSICHLTNESDGHTTSLYGIGFGPFIITNKHLFRRNNGTLVVQSLHGVFKVKDTTTLQQHLVDGRDMIIIRMPKDFPPFPTKLKFREPQREERICLVTTNFQTKSMSSMVSDTSCTFPSGDGIFWKHWIQTKDGQCGSPLVSTRDGFIVGIHSASNFTNTNNYFTSVPKNFMELLTNQEAQQWVSGWRLNADSVLWGGHKVFMVKPEEPFQPVKEATQL [Q97T],0.102,,,0.102,0.105,0.0856,,,0.122,
MGESLFKGPRDYNPISSSICHLTNESDGHTTSLYGIGFGPFIITNKHLFRRNNGTLVVQSLHGVFKVKDTTTLQQHLVDGRDMIIIRMPKDFPPFPQKLKFREPQREERICLVTTNFQTKSMSSMVSDTSCTFPSGDGIFWKHWIQTKDGQCGSPLVSTRDGFIVGIHSASNFTNTNNYFTSVPKNFMELLTNQEAQQWVSGWPLNADSVLWGGHKVFMVKPEEPFQPVKEATQL [R204P],0.0651,0.0918,,,0.063,,,,,
MGESLFKGPRDYNPISSSICHLTNESDGHTTSLYGIGFGPFIITNKHLFRRNNGTLVVQSLHGVFKVKDTTTLQQHLVDGRDMIIIRMPKDFPPFPQKLKFREPQREERICLVTTNFQTKSMSSMVSDTSCTFPSGDGIFWKHWIQTKDGQCGSPLVSTRDGFIVGIHSAKNFTNTNNYFTSVPKNFMELLTNQEAQQWVSGWRLNADSVLWGGHKVFMVKPEEPFQPVKEATQL [S171K],0.0913,,,,0.0831,0.103,,0.103,0.088,
MGESLFKGPRDYNPISSSICHLTNESDGHTTSLYGIGFGPFIITNKHLFRRNNGTLVVQSLHGVFKVKDTTTLQQHLVDGRDMIIIRMPKDFPPFPQKLKFREPQREERICLVTTNFQTKSMSSMVSDTSCTFPSGDGIFWKHWIQTKDGQCGSPLVSTRDGFIVGIHSASNFTNTNNYFTSVPKNFMYLLTNQEAQQWVSGWRLNADSVLWGGHKVFMVKPEEPFQPVKEATQL [E189Y],0.0929,,0.0828,0.0873,0.0931,,0.0553,,0.141,
MGESLFKGPRDYNPISSSICHLTNESDGHTTSLYGIGFGPFIITNKHLFRRNNGTLVVQSLHGVFKVKDTTTLQQHLVDGRDMIIIRMPKDFPPFPQKLKFREPQREERICLVTTNFQTKSMSSMVSDTSCTFPSGDGIFWKHWIQTKDGQCGSPLVSTRDGFIVGIHKASNFTNTNNYFTSVPKNFMELLTNQEAQQWVSGWRLNADSVLWGGHKVFMVKPEEPFQPVKEATQL [S169K],0.0214,,,,,,,,,
MGESLFKGPRDYNPISSSICHLTNESDGHTTSLYGIGFGPFIITNKHLFRRNNGTLVVQSLHGVFKVKDTTTLQQHLVDGRDMIIIRMPKDFPPFPQKLKFREPQREERICLVTTNFQTKSMSSMVSDTSCTFPSGDGIFWKHWIQTKDGQCGSPLVSTRDGFIVGIHSASNFTNTNNYFTSVPKNFMELLTNQEAQQWVSGSRLNADSVLWGGHKVFMVKPEEPFQPVKEATQL [W203S],0.0594,,0.0632,0.0584,0.0661,0.0608,0.0614,,0.0655,0.0598
MGESLFKGPRDYNPISSSICHLTNESDGHTTSLYGIGFGPFIITNKHLFRRNNGTLVVQSLHGVFKVKDTTTLQQHLVDGRDMIIIRMPKDFPPFPQKLKFREPQREERICLVTTNFWTKSMSSMVSDTSCTFPSGDGIFWKHWIQTKDGQCGSPLVSTRDGFIVGIHSASNFTNTNNYFTSVPKNFMELLTNQEAQQWVSGWRLNADSVLWGGHKVFMVKPEEPFQPVKEATQL [Q118W],0.0989,,,,,,,,,
MGESLFKGPRDYNPISSSICHLTNESDGHTTSLYGIGFGPFIITNKHLFRRNNGTLVVQSLHGVFKVKDTTTLQQHLVDGRDMIIIRMPKDFPPFPQKLKFREPQREERICLVTTNFQTKSMSSMVSDTSCTFPSGDGIFWKHWIQTKDGQCGSPLVSTRDGFIVGIHSASNFTNTNNYFTSVPKNFMELLTNQEAQQWVSGWRLNADSVLWGGHKVFMVKPEEPFDPVKEATQL [Q227D],0.109,0.0985,,0.0704,0.112,0.101,,0.118,0.149,0.122
MGESLFKGPRDYNPISSSICHLTNESDGHTTSLYGIGFGPFIITNKHLFRRNNGTLVVQSLHGVFKVKDTTTLQQHLVDGRDMIIIRMPKDNPPFPQKLKFREPQREERICLVTTNFQTKSMSSMVSDTSCTFPSGDGIFWKHWIQTKDGQCGSPLVSTRDGFIVGIHSASNFTNTNNYFTSVPKNFMELLTNQEAQQWVSGWRLNADSVLWGGHKVFMVKPEEPFQPVKEATQL [F92N],0.114,0.0605,,0.0687,,,,0.112,,0.0987

# Same assay, conditions: temperature: 34 °C; time window: 0-4 h after rhamnose induction
Variant,area with substrate ESLYFQS,area with substrate EYLYFQS,area with substrate EGLYFQS,area with substrate EVLYFQS,area with substrate EELYFQS,area with substrate EFLYFQS,area with substrate ETLYFQS,area with substrate EWLYFQS
MGESLFKGPRDYNPISSSICHLTNESDGHTTSLYGIGFGPFIITNKHLFRRNNGTLVVQSLHGVFKVKDTTTLQQHLVDGRDMIIIRMPKDFPPFPQKLKFREPQREERICLVTTNFQTKSMSSMVSDTSCTFPSGDGIFWKHWIQTKDGQCGSPLVSTRDGFIVGIHSASNFTNTNNYFTSVPKNFMELLTNQEAQQWVSGWRLCADSVLWGGHKVFMVKPEEPFQPVKEATQL [N206C],0.102,0.0968,,,,,,
MGESLFKGPRDYNPISSSICHLTNESDGHTTSLYGIGFGPFIITNKHLFRRNNGTLVVQSLHGVFKVKDTTTLQQHLVDGRDMIIIRMPKDFPPFPTKLKFREPQREERICLVTTNFQTKSMSSMVSDTSCTFPSGDGIFWKHWIQTKDGQCGSPLVSTRDGFIVGIHSASNFTNTNNYFTSVPKNFMELLTNQEAQQWVSGWRLNADSVLWGGHKVFMVKPEEPFQPVKEATQL [Q97T],0.122,,0.091,0.113,,,,
MGESLFKGPRDYNPISSSICHLTNESDGHTTSLYGIGFGPFIITNKHLFRRNNGTLVVQSLHGVFKVKDTTTLQQHLVDGRDMIIIRMPKDFPPFPQKLKFREPQREERICLVTTNFQTKSMSSMVSDTSCTFPSGDGIFWKHWIQTKDGQCGSPLVSTRDGFIVGIHSASNFTNTNNYFTSVPKNFMELLTNQEAQQWVSGWPLNADSVLWGGHKVFMVKPEEPFQPVKEATQL [R204P],,,,0.0608,0.0694,0.062,,
MGESLFKGPRDYNPISSSICHLTNESDGHTTSLYGIGFGPFIITNKHLFRRNNGTLVVQSLHGVFKVKDTTTLQQHLVDGRDMIIIRMPKDFPPFPQKLKFREPQREERICLVTTNFQTKSMSSMVSDTSCTFPSGDGIFWKHWIQTKDGQCGSPLVSTRDGFIVGIHSAKNFTNTNNYFTSVPKNFMELLTNQEAQQWVSGWRLNADSVLWGGHKVFMVKPEEPFQPVKEATQL [S171K],0.0848,,,0.0655,,,,
MGESLFKGPRDYNPISSSICHLTNESDGHTTSLYGIGFGPFIITNKHLFRRNNGTLVVQSLHGVFKVKDTTTLQQHLVDGRDMIIIRMPKDFPPFPQKLKFREPQREERICLVTTNFQTKSMSSMVSDTSCTFPSGDGIFWKHWIQTKDGQCGSPLVSTRDGFIVGIHSASNFTNTNNYFTSVPKNFMYLLTNQEAQQWVSGWRLNADSVLWGGHKVFMVKPEEPFQPVKEATQL [E189Y],0.0999,,0.105,,,,,
MGESLFKGPRDYNPISSSICHLTNESDGHTTSLYGIGFGPFIITNKHLFRRNNGTLVVQSLHGVFKVKDTTTLQQHLVDGRDMIIIRMPKDFPPFPQKLKFREPQREERICLVTTNFQTKSMSSMVSDTSCTFPSGDGIFWKHWIQTKDGQCGSPLVSTRDGFIVGIHKASNFTNTNNYFTSVPKNFMELLTNQEAQQWVSGWRLNADSVLWGGHKVFMVKPEEPFQPVKEATQL [S169K],,,,,,,0.0068,
MGESLFKGPRDYNPISSSICHLTNESDGHTTSLYGIGFGPFIITNKHLFRRNNGTLVVQSLHGVFKVKDTTTLQQHLVDGRDMIIIRMPKDFPPFPQKLKFREPQREERICLVTTNFQTKSMSSMVSDTSCTFPSGDGIFWKHWIQTKDGQCGSPLVSTRDGFIVGIHSASNFTNTNNYFTSVPKNFMELLTNQEAQQWVSGSRLNADSVLWGGHKVFMVKPEEPFQPVKEATQL [W203S],0.0606,0.0671,,0.0559,0.0683,,,
MGESLFKGPRDYNPISSSICHLTNESDGHTTSLYGIGFGPFIITNKHLFRRNNGTLVVQSLHGVFKVKDTTTLQQHLVDGRDMIIIRMPKDFPPFPQKLKFREPQREERICLVTTNFWTKSMSSMVSDTSCTFPSGDGIFWKHWIQTKDGQCGSPLVSTRDGFIVGIHSASNFTNTNNYFTSVPKNFMELLTNQEAQQWVSGWRLNADSVLWGGHKVFMVKPEEPFQPVKEATQL [Q118W],,,,,,0.1,,
MGESLFKGPRDYNPISSSICHLTNESDGHTTSLYGIGFGPFIITNKHLFRRNNGTLVVQSLHGVFKVKDTTTLQQHLVDGRDMIIIRMPKDFPPFPQKLKFREPQREERICLVTTNFQTKSMSSMVSDTSCTFPSGDGIFWKHWIQTKDGQCGSPLVSTRDGFIVGIHSASNFTNTNNYFTSVPKNFMELLTNQEAQQWVSGWRLNADSVLWGGHKVFMVKPEEPFDPVKEATQL [Q227D],0.109,,,0.11,0.0988,,,0.111
MGESLFKGPRDYNPISSSICHLTNESDGHTTSLYGIGFGPFIITNKHLFRRNNGTLVVQSLHGVFKVKDTTTLQQHLVDGRDMIIIRMPKDNPPFPQKLKFREPQREERICLVTTNFQTKSMSSMVSDTSCTFPSGDGIFWKHWIQTKDGQCGSPLVSTRDGFIVGIHSASNFTNTNNYFTSVPKNFMELLTNQEAQQWVSGWRLNADSVLWGGHKVFMVKPEEPFQPVKEATQL [F92N],0.0899,,,,,,,
